Assay results from paper PMC4336329 (PLoS ONE, 2015).
Out of some 310,000 compounds screened, about 2,200 (0.71%) showed an effect of 50% or more. Effects have a minus sign here. This is one part of the list.

target: human ether-à-go-go-related gene (hERG) potassium channel (human, UniProt Q12809); assay: primary screen, population patch clamp on CHO cells stably expressing hERG
Sequence (Q12809 whole entry, looked up): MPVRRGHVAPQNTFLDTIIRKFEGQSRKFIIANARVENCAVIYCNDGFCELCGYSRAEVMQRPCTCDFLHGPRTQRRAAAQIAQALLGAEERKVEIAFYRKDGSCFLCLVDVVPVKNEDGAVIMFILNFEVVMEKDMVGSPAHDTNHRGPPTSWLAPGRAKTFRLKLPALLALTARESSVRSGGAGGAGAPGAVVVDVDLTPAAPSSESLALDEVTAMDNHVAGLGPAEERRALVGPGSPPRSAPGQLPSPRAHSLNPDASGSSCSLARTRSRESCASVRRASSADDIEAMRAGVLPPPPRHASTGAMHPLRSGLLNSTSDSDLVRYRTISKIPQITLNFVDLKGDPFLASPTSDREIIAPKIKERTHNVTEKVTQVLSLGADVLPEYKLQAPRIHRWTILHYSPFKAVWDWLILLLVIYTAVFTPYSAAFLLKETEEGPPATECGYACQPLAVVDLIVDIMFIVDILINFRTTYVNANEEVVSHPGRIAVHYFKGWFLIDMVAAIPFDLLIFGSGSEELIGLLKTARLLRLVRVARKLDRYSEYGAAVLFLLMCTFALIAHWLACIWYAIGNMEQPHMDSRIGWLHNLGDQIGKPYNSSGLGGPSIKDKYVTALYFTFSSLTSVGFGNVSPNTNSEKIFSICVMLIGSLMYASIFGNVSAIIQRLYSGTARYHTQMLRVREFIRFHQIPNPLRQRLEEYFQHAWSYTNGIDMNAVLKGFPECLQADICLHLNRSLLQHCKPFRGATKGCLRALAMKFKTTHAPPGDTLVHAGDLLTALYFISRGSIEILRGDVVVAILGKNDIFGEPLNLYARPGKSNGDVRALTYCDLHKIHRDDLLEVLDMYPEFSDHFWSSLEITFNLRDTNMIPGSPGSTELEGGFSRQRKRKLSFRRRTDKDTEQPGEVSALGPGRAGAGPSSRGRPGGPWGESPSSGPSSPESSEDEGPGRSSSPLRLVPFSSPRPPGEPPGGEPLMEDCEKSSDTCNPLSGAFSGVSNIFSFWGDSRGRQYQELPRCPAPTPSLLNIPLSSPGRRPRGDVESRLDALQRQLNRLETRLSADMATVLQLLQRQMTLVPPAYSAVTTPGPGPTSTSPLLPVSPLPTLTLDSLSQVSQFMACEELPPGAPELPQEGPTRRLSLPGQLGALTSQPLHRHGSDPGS

Compound	hERG current change (%, negative = inhibition) at 1uM
CN1CCN(c2ccc(CNS(=O)(=O)Cc3cccc(C(F)(F)F)c3)cc2)CC1	7.74%
CC(=O)c1ccc(NC(=S)NC(=O)/C=C/c2ccccc2)cc1	15.9%
COc1ccc(CC(=O)Nc2cccc3ncccc23)cc1OC	10.3%
COc1cccc(Nc2nc(-c3cccnc3)cs2)c1	11.1%
O=C(COc1ccc(Cl)cc1)NCc1nnc(SCC(=O)N2CCCCCC2)o1	-5.31%
Cc1ccc(N2C(N)=C(C#N)C(c3cccnc3)C3=C2CCCC3=O)cc1 (stereo not drawn)	7.89%
O=C(COC(=O)CNC(=O)c1ccccc1)Nc1ccc2c(c1)OCO2	0.501%
COc1ccccc1N1CCN(/N=C/c2ccc(O)cc2O)CC1	12.4%
CN1CCN(S(=O)C23CC4CC(CC(C4)C2)C3)CC1 (stereo not drawn)	-10.8%
Cc1ccc(NC(=O)CC2(CC(=O)O)CCCC2)cc1	19.7%
Cc1cccc2cc(C#N)c(N3CCOCC3)nc12	18.8%
CC1=CC2=NC(=O)CC(C)(C(=O)N(CC(=O)NC(C)C)C3CCCC3)N2C=C1 (stereo not drawn)	14.8%
COc1ccccc1NC(=O)Nc1ccc(Cc2ccncc2)cc1	8.71%
CC(=O)c1ccc(OCC(O)CNCc2ccc3c(c2)OCO3)cc1 (stereo not drawn)	-5.83%
O=C(Nc1ccc2c(c1)OCCO2)C1CCCN(S(=O)(=O)c2cnc[nH]2)C1 (stereo not drawn)	15.8%
COc1cccc(C2=NOC(C(=O)NCC3CCCO3)C2)c1 (stereo not drawn)	12.8%
CC(=O)c1c(C)oc2ccc(NS(=O)(=O)c3ccccc3)cc12	14.3%
CCNC(=S)NNC(=O)c1csc2ccccc12	0.0518%
COc1cccc(C(=O)NCC2CCCN2S(=O)(=O)c2cccs2)c1 (stereo not drawn)	15.2%
Cc1ccc(CNC(=O)CCS(=O)(=O)c2cc3c(cc2Cl)NC(=O)CO3)cc1	0.814%
O=c1c2ccccc2nc(-c2ccccc2)n1-c1ccc(O)cc1	16.2%
CCN(CC)CCn1c(NC(=O)c2ccc(C)cc2)nc2ccccc21	-28%
CSC1=N/C(=C\c2cccnc2)C(=O)N1c1ccccc1	5.13%

Compound	hERG current change (%, negative = inhibition) at 1uM
CCCc1nc2ccccc2c(C(=O)OCC(=O)N2CCc3ccccc32)c1CC	5.31%
COc1cc2ccccc2cc1C(=O)Nc1ccccc1N1CCCC1	0.53%
CCOC(=O)C1CCN(C(=O)c2ccc(OC)cc2OC)CC1	-7.46%
CN(C)c1cc(-c2ccccc2)nc(N)n1	6.99%
Cc1cccc(OCCSc2nnc(-c3ccoc3C)n2C)c1	-12.2%
O=C1C=C(c2ccc(Oc3ccccc3)cc2)C[C@@H](c2ccc(Cl)cc2)C1	15.5%
Cn1ncc2c(Nc3cccc4ccccc34)ncnc21	1.62%
COc1ccc(N2CCN(CC(=O)Nc3ncc(C)s3)CC2)cc1	11.5%
CC/C(=N\NC(=O)c1nnn(-c2nonc2N)c1-c1cccs1)c1ccccc1	19%
Cc1ccc(SC(C)C(=O)Nc2cccc(N(C)S(C)(=O)=O)c2)cc1 (stereo not drawn)	1.57%
COc1ccc(C2(CNC(=O)c3cccc([N+](=O)[O-])c3)CCOCC2)cc1	11.5%
Cc1cc(C)c(S(=O)(=O)N2CCCC(C(=O)NC3CCCC3)C2)c(C)c1 (stereo not drawn)	3.01%
COCCn1c(CNc2ccc(F)cc2)nnc1SCC(=O)Nc1ccc(OC)cc1OC	-6.27%
Cc1ccc2nc(SCC(=O)Nc3cccc(S(=O)(=O)NC4=NCCCCC4)c3)[nH]c2c1	12.1%
Cc1noc(C)c1COc1cccc(C(=O)NC(C)(C)C)c1	14.6%
CCOc1nc(C)cc(C)c1S(=O)(=O)c1ccc(Cl)cc1	9.36%
O=C(Oc1ccccc1)c1cccnc1Oc1ccccc1	8.41%
CCCOCC(O)CC(Cc1ccccc1)C(=O)NN (stereo not drawn)	7.96%
COc1ccc(C(=O)COC(=O)c2nc3nccc(C)n3n2)cc1F	2.15%
Cc1ccc(P(=O)(O)c2ccc(C)cc2)cc1	8.61%
O=[N+]([O-])c1ccc2oc(-c3ccccc3)nc2c1	14.5%
Cc1ccc(NC(=O)CNc2ccc(Cl)c(Cl)c2)cc1S(=O)(=O)N(C)C	-5.87%
CCc1noc(C)c1C(=O)N1CCN(S(=O)(=O)c2ccc(C(C)=O)cc2)CC1	-0.838%

Compound	hERG current change (%, negative = inhibition) at 1uM
CC1CCCN(c2c([N+](=O)[O-])c(=O)oc3ccccc23)C1 (stereo not drawn)	-5.54%
CC1=C(CC(=O)NCC(=O)NCC(=O)O)c2cc(F)ccc2/C1=C/c1ccc(S(C)=O)cc1 (stereo not drawn)	13.1%
COc1ccc(C2C3=C(CC(C)(C)CC3=O)OC(N)=C2[N+](=O)[O-])cc1 (stereo not drawn)	5.43%
CCN(CC)c1ccc(/C=N/n2c(-c3ccccc3Br)n[nH]c2=S)cc1	5.42%
Cc1ccc(C)c(NC(=O)CCCCCCCCCCC2COCCO2)c1 (stereo not drawn)	6.1%
COc1cc(CNc2nnnn2C)ccc1OCc1c(F)cccc1Cl	6.07%
O=C(CS(=O)(=O)c1cn(Cc2ccc(F)cc2)c2ccccc12)N1CCOCC1	8.87%
Cc1cnc(NC(=O)CSc2nnc(-c3cccs3)n2C)s1	-13.2%
CCOC(=O)C(CC)(CC)/C(C)=N/NC(=O)CC#N	5.29%
O=S(=O)(NCc1c(Cl)cccc1Oc1ccccc1)c1ccc(F)cc1	4.99%
COC(=O)CCCC1=CC2=CC(=O)C(C)(OC(=O)c3cccs3)C(=O)C2=CN1c1cccc(C#N)c1 (stereo not drawn)	10.6%
Cc1cccc(CN2CCSc3sccc3C2=O)c1	13.4%
S=c1[nH]nc(Cc2cccs2)n1-c1ccccc1	9.84%
CCCCCCn1c(Br)nc2c1c(=O)n(C)c(=O)n2C	3.86%
CNC(=S)NNC(=O)c1ccc(C(C)(C)C)cc1	9.52%
COc1ccc(NC(=O)c2cn(-c3ccccc3)nc2-c2ccncc2)cc1	-0.625%
Cc1cccc(N=Nc2ccc(N(C)C)cc2)c1	7.51%
Cn1c2c(c(=O)n(C)c1=O)C(NC(=O)c1cccs1)(C(F)(F)F)C(=O)N2 (stereo not drawn)	7.42%
COc1ccc(NC(=O)CSc2nnc(CCC(=O)O)c(=O)n2N)cc1	14.6%
Cc1ccccc1Cn1c(Cc2ccccc2)nc2ccccc21	-3.83%
CCC(C)NC(=O)c1ccc(CS(=O)(=O)Cc2ccc(Cl)cc2)o1 (stereo not drawn)	2.09%
C=C1CCc2c([nH]c3ccc(OCC(C)C)cc23)C1=O	9.92%
CN(C)CCN(C(=O)c1ccc(S(=O)(=O)N(C)c2ccccc2)cc1)c1nc2ccc(Cl)cc2s1.Cl	6.16%

Compound	hERG current change (%, negative = inhibition) at 1uM
COc1cc2c(cc1OC)C(c1ccccc1)N(S(C)(=O)=O)CC2 (stereo not drawn)	7.05%
Cc1ccc(C(O)(C(=O)NNc2ccc3ccccc3n2)c2ccc(C)cc2)cc1.Cl	9.73%
O=[N+]([O-])c1cccc(-n2nncc2-c2ccccc2)c1	4.38%
CC(=O)COC(=O)c1cc(-c2ccc(C)cc2)nc2ccccc12	-0.463%
CCOC(=O)CSc1nc2ccccc2n1CC(=O)N1CCN(c2ccccc2)CC1	-18.7%
CCN(CC)CCNC(=O)c1cc(Cl)c(N)cc1OC.Cl	12.8%
COc1ccc(OC)c(NC(=O)COC(=O)c2cc3c(s2)CCC3)c1	10.2%
O=C1NC2(CCCCCC2)C(=O)N1Cc1cccc([N+](=O)[O-])c1	10.1%
COc1cccc(C(=O)NC(=S)Nc2ccc3c4c(cccc24)CC3)c1	8.61%
CC1=C(C(=O)OCC2CCCO2)C(c2cccc(O)c2)NC(=O)N1 (stereo not drawn)	10.9%
O=C(CCCN1C(=O)NC2(CCCC2)C1=O)N1CCN(S(=O)(=O)c2ccccc2)CC1	11.3%
Cc1ccc(-c2nnn(CC(=O)N(c3ccccc3F)C(C(=O)NC3CCCC3)c3ccncc3)n2)o1 (stereo not drawn)	14.5%
Cc1csc(NC(=O)CSCC(=O)O)c1-c1nc2ccccc2s1	7.17%
O/N=C/c1ccc2cccc(OCc3ccccc3)c2n1	11.9%
COc1cccc(/C=N/NC(=O)C(c2ccncc2)N2CCOCC2)c1 (stereo not drawn)	11.2%
Cc1ccc(-n2nc3c(=O)n(CC(=O)NCCC4=CCCCC4)nc(C)c3c2C)cc1	8.77%
CCOC(=O)N1CCN(C(=O)c2ccccc2NC(=O)c2ccc(Br)cc2)CC1	-3.07%
O=C(c1cn(-c2ccccc2)nc1-c1cccs1)N(CCO)Cc1ccccc1	8.41%
CCC(=O)c1ccc(OCC(O)CNCc2ccc(F)cc2)cc1 (stereo not drawn)	-12.8%
CCN1C(=O)CSC1=Nc1cccc(C(=O)O)c1	15.2%
COc1ccc(NC(=O)CSc2nc(N)c3cc4c(nc3n2)CCCC4)c(OC)c1	-1.87%
